# Experimental data reported in PubChem BioAssay (NCATS).
# “And” between values parts separate entries of the source, which are not always exact repeats. Equal values may be shown once. Inconclusive means that the source gave no clear call. Such entries were picked first, then a sample of the others. For some of these results: A potency beside an inconclusive call is a rough fit, not a confirmed value. The source made the active and inactive calls. The call rests on the fitted dose curve; in most records, active means well fitted curve in the direction sought with a large enough effect; inconclusive means small, poorly fitted or top-dose-only effect, or another doubt; inactive means no such curve, though single readings can be large; an effect the other way counts as inactive or inconclusive. *1 amine or outer side, *2 acyl side, *3 side chain or, on linkers, in order; H or OH if unused. Where a SMILES comes first, the peptide text is derived from it. Bridges are numbered along the chain shown (N, C = ends). Roman numbers before positions name the chains, in order. [ ]: non-standard residue; d: D form. Actinocin(9to1) = Cc1c2oc3c(C)ccc(C(=O)[*:1])c3nc-2c(C(=O)[*:2])c(N)c1=O; NMeV = CN[C@H](C(=O)O)C(C)C; Sar = CNCC(=O)O
# Key:
# Furin (Homo sapiens) = Furin (Homo sapiens) (UniProt P09958); experiment: Furin counterscreen qHTS for Zika virus inhibitors (AID 1347149); conditions: furin enzymatic counterscreen, fluorogenic substrate; series mostly up to 57.5 µM; further: nearly all actives have a fitted effect of over 70% in size; further: potency means the concentration at half of the fitted maximal effect
# UniProt P09958, sequence (P09958 whole entry, looked up): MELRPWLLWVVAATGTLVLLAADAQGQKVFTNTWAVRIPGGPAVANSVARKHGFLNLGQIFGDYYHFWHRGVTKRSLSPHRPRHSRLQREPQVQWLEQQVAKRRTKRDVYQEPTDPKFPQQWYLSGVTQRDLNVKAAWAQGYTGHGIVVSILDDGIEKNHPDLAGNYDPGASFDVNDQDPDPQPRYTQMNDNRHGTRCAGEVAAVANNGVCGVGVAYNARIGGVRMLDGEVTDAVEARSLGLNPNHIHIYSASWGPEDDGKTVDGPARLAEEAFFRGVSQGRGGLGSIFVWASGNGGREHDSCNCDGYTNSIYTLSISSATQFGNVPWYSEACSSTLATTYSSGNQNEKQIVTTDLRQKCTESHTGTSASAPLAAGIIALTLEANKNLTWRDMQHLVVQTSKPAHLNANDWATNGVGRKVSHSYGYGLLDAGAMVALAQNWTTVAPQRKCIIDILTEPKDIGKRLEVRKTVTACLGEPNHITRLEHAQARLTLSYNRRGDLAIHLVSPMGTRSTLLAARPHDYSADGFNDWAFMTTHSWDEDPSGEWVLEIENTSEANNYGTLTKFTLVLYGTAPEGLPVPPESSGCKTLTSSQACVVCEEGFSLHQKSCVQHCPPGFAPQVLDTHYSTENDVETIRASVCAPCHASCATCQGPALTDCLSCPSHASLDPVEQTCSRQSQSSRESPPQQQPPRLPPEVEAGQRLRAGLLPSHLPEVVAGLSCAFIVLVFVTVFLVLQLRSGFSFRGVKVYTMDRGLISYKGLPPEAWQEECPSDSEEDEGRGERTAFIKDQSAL
# Procedure, shortened: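 Fluorogenic cleavage of BOC-RVRR-AMC (2 microM final, Km ~15 µM) was monitored (ex 340, em 450 nm) at 37C after 15 min RT preincubation of 5 nM furin with compounds in HEPES pH 7.0 buffer with CaCl2 and Triton X-100. Percent inhibition was fitted to a 4-parameter Hill curve.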
# [1] = tested on: Zika virus NS2B-NS3 protease (unlinked); experiment: Optimization of GU AMC qHTS for Zika virus inhibitors: Unlinked NS2B-NS3 protease assay (AID 1347151); conditions: recombinant ZIKV NS2B-NS3 protease, fluorogenic AMC substrate; series mostly up to 52.5 µM; further: nearly all actives have a fitted effect of over 80% in size; further: potency means the concentration at half of the fitted maximal effect
# Procedure, shortened: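 In this qHTS, compounds acted on 25 nM unlinked Zika NS2B–NS3 in pH 8.0 Tris/Tween buffer. Cleavage of an AMC peptide ran 15 min at room temperature, to about 20% conversion.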
# [2] = ZIKV-mCherry secondary qHTS for Zika virus inhibitors (AID 1347158); conditions: Vero cells, ZIKV-mCherry infection imaging, 48-72 h; series mostly up to 49.2 µM; further: potency means the concentration at half of the fitted maximal effect
# Procedure, shortened: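 Vero cells, 5,000/well, plated overnight at 37 °C, then compound added and infected with recombinant ZIKV-mCherry at MOI 1 for 48-72 h. PFA-fixed, Hoechst nuclear stain, high-content imaging; cells with mCherry intensity above 450 RFU scored infected, reported as percent infection.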
# [3] = target: N-terminal Xaa-Pro-Lys N-methyltransferase 1 (Homo sapiens) (UniProt Q9BV86); experiment: qHTS Assay for Inhibitors of N-terminal methyltransferase 1 (NTMT1): LOPAC validation of the NTMT1 SAHH-coupled ThioGlo3 Assay (AID 1347143); conditions: recombinant NTMT1, SAHH-coupled ThioGlo3 fluorescence; series mostly up to 114 µM;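 further: SAH from peptide methylation measured as thiol fluorescence via SAHH coupling and ThioGlo3; nearly all actives have a fitted effect of over 70% in size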; further: potency means the concentration at half of the fitted maximal effect
# UniProt Q9BV86, sequence (Q9BV86 whole entry, looked up): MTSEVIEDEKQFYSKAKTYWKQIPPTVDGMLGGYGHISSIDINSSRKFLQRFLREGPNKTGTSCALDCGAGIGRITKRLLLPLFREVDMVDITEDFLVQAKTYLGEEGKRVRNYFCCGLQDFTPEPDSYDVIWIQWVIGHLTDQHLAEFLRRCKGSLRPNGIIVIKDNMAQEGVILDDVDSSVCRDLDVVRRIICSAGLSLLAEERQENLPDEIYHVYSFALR
# Procedure, shortened: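 Inhibition of NTMT1 methylation of peptide SPKRIA is followed by converting SAH with SAHH and labelling the released thiol with ThioGlo3. Plates are read at 340/450nm before and 30 min after reagent addition, both at room temperature.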
# [4] = tested on: Zika virus NS2B-NS3 protease; experiment: Primary screen GU AMC qHTS for Zika virus inhibitors (AID 1347154); conditions: Zika NS2B-NS3 unlinked protease, AMC fluorogenic substrate; series mostly up to 54.1 µM; further: nearly all actives have a fitted effect of over 70% in size; further: potency means the concentration at half of the fitted maximal effect
# Procedure, shortened: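 Fluorogenic AMC-substrate cleavage by noncovalent NS2B-NS3 protease complex (25 nM, pH 8.0 Tris buffer with Tween 20) followed for 15 minutes at room temperature (~20% conversion). Percent inhibition from ex340/em450 signal change, fitted by 4-parameter Hill equation.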
# [5] = Confirmatory screen GU Rhodamine qHTS for Zika virus inhibitors qHTS (AID 1347157); conditions: purified enzyme assay, Rhodamine110 substrate fluorescence, 15 min; further: potency means the concentration at half of the fitted maximal effect; nearly all actives have a fitted effect of over 70% in size
# Procedure, shortened: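 Percent inhibition came from the 15-min rise in Rhodamine110 fluorescence (1.5 microM substrate, ~15% conversion), normalized to no-inhibitor and no-enzyme wells and Hill-fitted. Unlinked protease, 25 nM, pH 8.0 Tris buffer; compounds up to 114 microM, 15-min preincubation.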
# [6] = tested on: Zika virus NS2B-NS3 protease (unlinked complex); experiment: Confirmatory screen GU AMC qHTS for Zika virus inhibitors (AID 1347153); conditions: Recombinant NS2B-NS3 protease, AMC substrate fluorescence; series mostly up to 57.1 µM; further: nearly all actives have a fitted effect of over 70% in size
# Procedure, shortened: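 Unlinked NS2B-NS3 complex (25 nM) in 10 mM Tris-HCl pH 8.0, 0.01% Tween 20 preincubated 15 min with compound, then 10 microM Bz-Nle-KRR-AMC (Km 18.3 µM). Fluorescence change over 15 min, normalized, Hill-fitted.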
# [7] = tested on: Zika virus NS2B-NS3 protease (linked construct); experiment: Confirmatory screen NINDS AMC qHTS for Zika virus inhibitors (AID 1347152); conditions: Purified linked NS2B-NS3, AMC substrate fluorescence; series mostly up to 56.6 µM; further: nearly all actives have a fitted effect of over 70% in size; further: potency means the concentration at half of the fitted maximal effect
# Procedure, shortened: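 Concentration-response confirmation used the NINDS linked protease (NS2B hydrophilic domain joined to NS3 protease domain), 1 nM, with a 15-min compound preincubation. Substrate, Nle-KRR-AMC at 10 microM, was read by UV fluorescence before and after 15 min.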
# Tags describe the fitted curve by direction and shape.
smiles,measurement,setting,value
"Cc1c2oc3c(C)ccc(C(=O)N[C@@H]4C(=O)N[C@H](C(C)C)C(=O)N5CCC[C@H]5C(=O)N(C)CC(=O)N(C)[C@@H](C(C)C)C(=O)O[C@@H]4C)c3nc-2c(C(=O)N[C@@H]2C(=O)N[C@H](C(C)C)C(=O)N3CCC[C@H]3C(=O)N(C)CC(=O)N(C)[C@@H](C(C)C)C(=O)O[C@@H]2C)c(N)c1=O (I: T[dV]P[Sar][NMeV] / II: T[dV]P[Sar][NMeV]; ester I:1-I:C, II:1-II:C; linker I:N-II:N via Actinocin(9to1))",Potency,Furin (Homo sapiens),"inconclusive: 27.1 µM [inhibitor, partial curve] and inconclusive: 15.2 µM [inhibitor, partial curve]"
same,Potency,[1],"inconclusive: 21.5 µM [inhibitor, partial curve, poor fit]"
CC[C@H](C)[C@H]1O[C@]2(CC[C@@H]1C)C[C@@H]1C[C@@H](C/C=C(\C)[C@@H](O[C@H]3C[C@H](OC)[C@@H](O[C@H]4C[C@H](OC)[C@@H](O)[C@H](C)O4)[C@H](C)O3)[C@@H](C)/C=C/C=C3\CO[C@@H]4[C@H](O)C(C)=C[C@@H](C(=O)O1)[C@]34O)O2,Potency,Furin (Homo sapiens),"inconclusive: 10.8 µM [inhibitor, single point]"
same,Potency,[1],"inconclusive: 10.8 µM [inhibitor, single point]"
same,Potency,[2],"inconclusive: 5.01 µM [inhibitor, full curve]"
CC(=O)[C@]1(O)Cc2c(O)c3c(c(O)c2[C@@H](O[C@H]2C[C@H](N)[C@H](O)[C@H](C)O2)C1)C(=O)c1ccccc1C3=O,Potency,[3],"inconclusive: 56.2 µM [inhibitor, partial curve]"
CC(C[N+](C)(C)C)OC(N)=O (configuration not stated),Potency,[3],inactive
COc1cc2c(cc1OC)-c1cc(=Nc3c(C)cc(C)cc3C)n(C)c(=O)n1CC2,Potency,[3],"inconclusive: 39.8 µM [inhibitor, partial curve]"
same,Potency,[1],"inconclusive: 16.8 µM [inhibitor, partial curve]"
C[C@]12C[C@H](O)[C@H]3[C@@H](CCC4=CC(=O)CC[C@@]43C)[C@@H]1CC[C@@H]2C(=O)CO,Potency,[3],"inconclusive: 44.7 µM [inhibitor, partial curve]"
same,Potency,[1],inactive
CC1=C(/C=C/C(C)=C/C=C/C(C)=C/C(=O)O)C(C)(C)CCC1,Potency,[3],"inconclusive: 50.1 µM [inhibitor, partial curve]"
O=S(=O)(O)c1cc(O)c2c(N=Nc3ccc(Nc4ccccc4)c4c(S(=O)(=O)O)cccc34)cc(S(=O)(=O)O)cc2c1,Potency,Furin (Homo sapiens),"inconclusive: 46.9 µM [inhibitor, partial curve]"
same,Potency,[2],"inconclusive: 31.6 µM [inhibitor, partial curve, poor fit]"
COc1cc2ncnc(Nc3cccc(Cl)c3)c2cc1OC,Potency,[3],"inconclusive: 79.4 µM [inhibitor, partial curve]"
same,Potency,[1],"inconclusive: 16.8 µM [inhibitor, partial curve, poor fit]"
Oc1c(Cl)cc(Cl)c(Cl)c1Cc1c(O)c(Cl)cc(Cl)c1Cl,Potency,Furin (Homo sapiens),"inconclusive: 18.7 µM [inhibitor, full curve]"
same,Potency,[4],active: 7.94 µM
same,Potency,[5],active: 15.8 µM
same,Potency,[2],"inconclusive: 5.01 µM [inhibitor, full curve]"
O[C@@H](c1cc(C(F)(F)F)nc2c(C(F)(F)F)cccc12)[C@H]1CCCCN1,Potency,Furin (Homo sapiens),inactive
CCN(CC)CCNC(=O)c1c(C)[nH]c(/C=C2\C(=O)Nc3ccc(F)cc32)c1C,Potency,[3],"inconclusive: 50.1 µM [inhibitor, partial curve]"
same,Potency,[4],inactive
CCN(CC)CCCC(C)Nc1ccnc2cc(Cl)ccc12 (configuration not stated),Potency,[3],inactive
same,Potency,[1],active: 15 µM
same,Potency,[6],inactive
same,Potency,[4],"inconclusive: 14 µM [inhibitor, partial curve, poor fit]"
CCN(CC)CCCN(c1ccccc1)C1Cc2ccccc2C1,Potency,[3],"inconclusive: 56.2 µM [inhibitor, partial curve]"
CCN(CC)CCNC(=O)c1ccc(N)cc1,Potency,[3],inactive
CCN1CCc2nc(N)oc2CC1,Potency,Furin (Homo sapiens),"inconclusive: 27.1 µM [inhibitor, partial curve]"
same,Potency,[1],"inconclusive: 21.2 µM [inhibitor, single point]"
same,Potency,[7],inactive
same,Potency,[6],inactive
CCN(CC)CCCCNc1ncc2cc(-c3cc(OC)cc(OC)c3)c(NC(=O)NC(C)(C)C)nc2n1,Potency,[7],"inconclusive: 30.4 µM [inhibitor, single point]"
CCCc1nc(C)c2c(=O)[nH]c(-c3cc(S(=O)(=O)N4CCN(CC)CC4)ccc3OCC)nn12,Potency,[7],inactive
N#Cc1c(O)c2c(-c3ccc(-c4ccccc4O)cc3)csc2[nH]c1=O,Potency,[2],inactive
COc1ccc(S(=O)(=O)Nc2cc(-c3c(O)ccc4ccccc34)c(O)c3ccccc23)cc1,Potency,[2],inactive
